The list shows a part of the results, in another mix than the full data. The list includes weakly bound sequences.
Experiments:
Test in all cases: protein-binding microarray (PBM)
Details in all cases: PBM: ~300 nM protein, 6 mM HEPES pH 7.8, 80 mM KCl, 0.5 mM EDTA, 0.5 mM EGTA, 6% glycerol, 35 ng/ul poly-dIdC, 1% milk, 1 h, room temperature; Ap Aiptasia and Nv Nematostella (sea anemones) / Co Capsaspora / Aq Amphimedon (sponge) / Dm Drosophila / Hu human; RHD is the Rel homology domain; high values mean tight binding; most listed sequences are background and not binding sites; double strand, one strand shown
[1] = biological target: T1, GST-Ap-NF-kB RHD (UniProt A0A913YAJ5)
T1 sequence: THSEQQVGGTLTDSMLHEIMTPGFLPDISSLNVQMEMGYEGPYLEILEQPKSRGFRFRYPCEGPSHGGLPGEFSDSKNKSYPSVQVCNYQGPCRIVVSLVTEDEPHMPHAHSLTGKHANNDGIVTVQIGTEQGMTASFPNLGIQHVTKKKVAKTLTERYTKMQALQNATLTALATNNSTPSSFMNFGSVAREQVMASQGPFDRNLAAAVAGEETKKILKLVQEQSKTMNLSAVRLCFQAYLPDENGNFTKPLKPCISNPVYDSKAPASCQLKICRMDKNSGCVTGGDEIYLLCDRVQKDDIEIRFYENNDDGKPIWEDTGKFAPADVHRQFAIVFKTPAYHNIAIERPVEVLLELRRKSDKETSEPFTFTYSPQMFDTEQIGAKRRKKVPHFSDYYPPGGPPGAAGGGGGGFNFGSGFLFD

[2] = biological target: T2, GST-Nv-NF-kB (Cys allele) (UniProt E5G601)
T2 sequence: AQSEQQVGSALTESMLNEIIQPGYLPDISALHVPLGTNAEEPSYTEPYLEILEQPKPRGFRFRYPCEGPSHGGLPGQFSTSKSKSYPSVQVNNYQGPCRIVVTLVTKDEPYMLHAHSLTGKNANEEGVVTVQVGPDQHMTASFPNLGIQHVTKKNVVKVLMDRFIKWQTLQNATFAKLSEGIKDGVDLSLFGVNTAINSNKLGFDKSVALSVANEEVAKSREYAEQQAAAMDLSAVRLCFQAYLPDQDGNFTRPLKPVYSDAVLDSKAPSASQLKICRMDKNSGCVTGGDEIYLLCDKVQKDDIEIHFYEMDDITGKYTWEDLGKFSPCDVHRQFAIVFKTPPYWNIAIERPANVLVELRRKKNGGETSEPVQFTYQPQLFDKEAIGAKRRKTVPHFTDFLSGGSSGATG

[3] = biological target: T3, GST-Co-NF-kB (UniProt F1ARL5)
T3 sequence: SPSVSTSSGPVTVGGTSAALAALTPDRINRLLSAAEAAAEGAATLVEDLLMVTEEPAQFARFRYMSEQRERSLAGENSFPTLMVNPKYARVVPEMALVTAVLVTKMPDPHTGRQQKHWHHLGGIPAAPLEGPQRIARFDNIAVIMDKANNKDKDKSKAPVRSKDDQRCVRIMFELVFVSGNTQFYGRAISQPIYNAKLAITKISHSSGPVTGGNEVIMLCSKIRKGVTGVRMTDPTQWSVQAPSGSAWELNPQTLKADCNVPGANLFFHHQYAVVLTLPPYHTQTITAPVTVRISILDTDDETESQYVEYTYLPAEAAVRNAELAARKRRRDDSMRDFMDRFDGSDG

[4] = biological target: T4, GST-Dm-Relish (UniProt Q94527)
T4 sequence: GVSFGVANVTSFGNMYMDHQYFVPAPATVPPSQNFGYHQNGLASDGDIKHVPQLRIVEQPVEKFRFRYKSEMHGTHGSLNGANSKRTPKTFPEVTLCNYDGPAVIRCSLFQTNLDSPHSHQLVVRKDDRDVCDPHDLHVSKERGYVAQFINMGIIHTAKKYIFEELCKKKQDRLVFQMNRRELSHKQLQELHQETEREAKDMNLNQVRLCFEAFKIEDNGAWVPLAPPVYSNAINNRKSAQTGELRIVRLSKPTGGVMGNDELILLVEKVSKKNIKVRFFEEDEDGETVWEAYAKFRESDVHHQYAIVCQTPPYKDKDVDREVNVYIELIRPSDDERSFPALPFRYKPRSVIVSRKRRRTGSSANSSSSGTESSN

[5] = biological target: T5, GST-Aq-NF-kB (UniProt A9Y5G7)
T5 sequence: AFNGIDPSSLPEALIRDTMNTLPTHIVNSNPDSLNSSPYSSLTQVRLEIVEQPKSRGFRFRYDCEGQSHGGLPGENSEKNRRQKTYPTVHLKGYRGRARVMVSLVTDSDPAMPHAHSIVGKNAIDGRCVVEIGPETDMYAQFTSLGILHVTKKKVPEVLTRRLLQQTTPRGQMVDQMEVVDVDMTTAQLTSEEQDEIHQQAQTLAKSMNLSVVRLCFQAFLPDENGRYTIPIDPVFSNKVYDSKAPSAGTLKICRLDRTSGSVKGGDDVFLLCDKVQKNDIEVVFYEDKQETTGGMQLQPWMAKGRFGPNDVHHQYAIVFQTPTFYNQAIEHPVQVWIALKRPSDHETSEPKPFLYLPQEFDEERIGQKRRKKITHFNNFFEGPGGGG

Sequence	binding signal [1] [z-score]	binding signal [2] [z-score]	binding signal [3] [z-score]	binding signal [4] [z-score]	binding signal [5] [z-score]
CCGATTAACATCAAGAGAGAAAGTGATGTTAATCGGGTCTTGATTCGCTTGACGCTGCTG	0.235	0.675	1.16	0.16	-0.0452
CCGATTAACATCAACGTTTCTGTTGATGTTAATCGGGTCTTGATTCGCTTGACGCTGCTG	-0.855	-0.253	-0.312	-0.331	-0.56
CCGATTAACATCAGGAAAATCTATGATGTTAATCGGGTCTTGATTCGCTTGACGCTGCTG	0.0778	-0.26	0.684	0.44	0.555
CCGATTAACATCACTCGCAATTGTGATGTTAATCGGGTCTTGATTCGCTTGACGCTGCTG	-0.331	-0.022	0.365	0.814	-0.479
CCGATTAACATCATGGTCAAGCATGATGTTAATCGGGTCTTGATTCGCTTGACGCTGCTG	-1.06	-1	-1.69	-0.819	-0.853
CCGATTAACATCAAGCACAGCGATGATGTTAATCGGGTCTTGATTCGCTTGACGCTGCTG	-0.192	-0.876	-0.871	-0.65	-0.729
CCGATTAACATCAGTAATCAATTTGATGTTAATCGGGTCTTGATTCGCTTGACGCTGCTG	-0.9	0.469	-0.303	-0.0731	-0.621
CCGATTAACATCAGCCCTAGATTTGATGTTAATCGGGTCTTGATTCGCTTGACGCTGCTG	0.444	-0.363	-0.204	-0.534	-0.391
CCGATTAACATCATGCTCACGCCTGATGTTAATCGGGTCTTGATTCGCTTGACGCTGCTG	-0.895	-1.06	-1.14	-0.76	-0.738
CCGATTAACATCAGGAAAAATCATGATGTTAATCGGGTCTTGATTCGCTTGACGCTGCTG	-0.468	0.0408	0.294	0.271	0.182
CCGATTAACATCAAACATTGCCATGATGTTAATCGGGTCTTGATTCGCTTGACGCTGCTG	-0.137	-0.0869	-0.0557	-0.527	-0.454
CCGATTAACATCAAGCTTACTCATGATGTTAATCGGGTCTTGATTCGCTTGACGCTGCTG	-0.558	-0.061	-0.635	-0.685	-0.518
CCGATTAACATCAGCCGCGGCTGTGATGTTAATCGGGTCTTGATTCGCTTGACGCTGCTG	0.0408	-0.647	-0.88	-0.0977	-0.375
CCGATTAACATCACTGCTGAGACTGATGTTAATCGGGTCTTGATTCGCTTGACGCTGCTG	-0.179	-0.0966	0.188	-0.724	-0.516
CCGATTAACATCACCTTTTACATTGATGTTAATCGGGTCTTGATTCGCTTGACGCTGCTG	-0.0214	0.114	0.0582	0.597	0.585
CCGATTAACATCAACAGAAAGTTTGATGTTAATCGGGTCTTGATTCGCTTGACGCTGCTG	-0.906	-0.293	-0.688	-0.114	-0.579
CCGATTAACATCAACGCCACTACTGATGTTAATCGGGTCTTGATTCGCTTGACGCTGCTG	0.0307	-0.665	-0.239	-0.83	-0.503
CCGATTAACATCAAAAACAGCATTGATGTTAATCGGGTCTTGATTCGCTTGACGCTGCTG	-0.936	-0.0965	-0.0286	-0.151	-0.495
CCGATTAACATCATACACATATTTGATGTTAATCGGGTCTTGATTCGCTTGACGCTGCTG	0.0136	-0.602	-0.111	-0.371	-0.396
CCGATTAACATCAGCATAAGTCTTGATGTTAATCGGGTCTTGATTCGCTTGACGCTGCTG	-0.56	-0.355	-0.205	-0.546	-0.434
CCGATTAACATCATTGCATCGAGTGATGTTAATCGGGTCTTGATTCGCTTGACGCTGCTG	-0.339	-0.631	-0.537	0.244	-0.406
CCGATTAACATCACCTCCGTATCTGATGTTAATCGGGTCTTGATTCGCTTGACGCTGCTG	0.402	0.0999	0.407	-0.353	-0.095
CCGATTAACATCAACGCGTAACTTGATGTTAATCGGGTCTTGATTCGCTTGACGCTGCTG	-0.943	-0.734	-0.586	-0.74	-0.686
CCGATTAACATCATTAGTCTCGTTGATGTTAATCGGGTCTTGATTCGCTTGACGCTGCTG	0.0935	0.443	-0.159	-0.428	-0.537
CCGATTAACATCATATATCGACGTGATGTTAATCGGGTCTTGATTCGCTTGACGCTGCTG	-0.438	-0.361	-0.071	-0.102	-0.395
CCGATTAACATCAGTAATACTATTGATGTTAATCGGGTCTTGATTCGCTTGACGCTGCTG	-0.672	-0.0715	0.0457	-0.0364	-0.216
CCGATTAACATCATGAACATTTATGATGTTAATCGGGTCTTGATTCGCTTGACGCTGCTG	-0.701	0.119	-0.479	-0.164	-0.211

Reference: PMC5700166
